The results in this text go back to PubChem BioAssay AID1346428 (National Center for Advancing Translational Sciences (NCATS), 2018).

The whole screen tested about 48,000 compounds, of which about 1,200 (2.5%) were called active. Roughly 2% stayed inconclusive and do not appear here.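 Rule for the calls: active = activation of at least 60% and not above a set upper limit (about 1 call in 100 departs from these limits); inconclusive = activation of 40% to 60%, or above that upper limit; inactive = activation under 40%.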 The list shows a part of the results.

Sequence of UniProt O75388 (O75388 whole entry, looked up, the tested form may be a part): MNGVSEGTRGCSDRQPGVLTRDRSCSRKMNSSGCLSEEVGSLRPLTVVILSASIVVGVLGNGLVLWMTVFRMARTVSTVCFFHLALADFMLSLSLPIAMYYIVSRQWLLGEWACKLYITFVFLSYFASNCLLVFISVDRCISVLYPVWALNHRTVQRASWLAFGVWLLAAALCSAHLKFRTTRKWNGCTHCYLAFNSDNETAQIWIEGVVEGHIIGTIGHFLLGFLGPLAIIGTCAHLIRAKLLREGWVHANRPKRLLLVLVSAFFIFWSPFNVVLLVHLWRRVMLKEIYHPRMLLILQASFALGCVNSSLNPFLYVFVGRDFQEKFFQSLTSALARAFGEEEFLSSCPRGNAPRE

The assay deals with Probable G-protein coupled receptor 32 (Homo sapiens) (UniProt O75388). Briefly: qHTS for Agonists of Human Resolvin D1 Receptor DRV1. Note: 0% is about no effect. The following applies: CHO-K1 GPR32 beta-arrestin PathHunter luminescence, 90 min; at 76.9 µM; active compounds read high; zero percent set by DMSO-only wells. In a few lines:
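Agonism was scored by beta-Gal fragment complementation (chemiluminescent read, 1 h detection at ambient temperature) reporting beta-arrestin binding to GPR32 in engineered CHO-K1 cells. Compound treatment lasted 90 min at 37 C, normalized to a DMSO basal control.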
In general terms: In qHTS, concentration-response curves come from the screen itself.
Consider `CCNc1oc(-c2ccc(COc3ccc(Cl)cc3)o2)nc1C#N`, for which the activation is inactive: 19.7%. Consider `NC(=O)c1ccccc1NC(=O)Cn1nc(Cc2cccnc2)c2ccccc2c1=O`, for which the activation is inactive: -23.2%. Under `CCOc1ccc(CNC(=O)c2sc3ncnc(N(C)C4CCCCC4)c3c2C)cc1` stands inactive: -15.7%. For `Cc1ccc(Cl)cc1NC(=O)CSc1nc2c(c(=O)[nH]1)CN(Cc1ccccc1)CC2`, the activation is inactive: 8.01%. On to `COc1ccc(S(=O)(=O)N2CCN(CC(=O)Nc3ccc(Cl)c(C(F)(F)F)c3)CC2)cc1`, for which the activation is inactive: 4.74%.

With `Cc1cccc(NC(=O)CSc2nc(=O)n(Cc3ccccn3)c3c2CCC3)c1C`, the activation was inactive: -4.83%.

Regarding `COc1ccc(CNC(=O)c2cc3cccc4c3n2CC(C)S4)c(OC)c1` (centres undefined), the activation was inactive: -19.4%. `O=C(CSc1ncc(CO)n1Cc1ccc(Cl)cc1)NCc1ccc(F)cc1`: the activation was inactive: 39.5%. The value for `COc1ccc(C(=O)Oc2cc(-c3ccc4c(c3)OCO4)cc(=O)c3c(C)oc(C)c23)cc1` was inactive: -6.9%; that for `COC(=O)c1cc2oc(C)cc2n1CC(=O)Nc1cc(Cl)ccc1OC` was inactive: -20.4%; that for `Cc1ccccc1C(=O)Nc1ccc(C(=O)OCc2cc(=O)n3nc(C(C)C)sc3n2)cc1` was inactive: -18.5%. `COc1ccc(NC(=O)C2Cc3ccccc3N2C(=O)c2ccccc2)cc1OC` (centres undefined): the activation is inactive: -2.92%. Turning to `Cc1ccc(-c2onc(C)c2C)cc1S(=O)(=O)Nc1ccc(Cl)cn1`, the activation was inactive: -1.9%.

Take `CCOC(=O)c1ccc(NC(=O)CCc2c(C)nc3c(-c4ccc(F)cc4)c(C)nn3c2C)cc1`: the activation is inactive: -1.93%. On to `CCOc1ccc(NC(=O)N(C(C)C)C2CCN(C(C)=O)CC2)cc1`, for which the activation is inactive: -13.1%. Regarding `COc1ccc(C2C=C(c3ccccc3)Nc3nc(NC(=O)/C=C/c4ccc(F)cc4)nn32)cc1` (centres undefined), the activation is inactive: -16.5%.

As to `COc1ccc2c(c1)c1c(c(=O)n(-c3ccccc3C)c(=O)n1CC(=O)N1CCCC1)n2C`, the activation is inactive: -7.38%. In the case of `COc1cccc(CN2C(=O)CN(C3CCCCC3)C(=O)C2c2ccc(OC)c(OC)c2)c1` (centres undefined), the activation was inactive: -2.42%.

`CCOc1ccc(CNC(=O)C2CCN(S(=O)(=O)c3cn(C)cn3)CC2)cc1OC`: the activation is inactive: -11.6%.

As to `COc1ccc(-c2cc(C(F)(F)F)c(C#N)c(SCC(=O)Nc3ccccc3F)n2)cc1`, the activation was inactive: -9.52%. Under `CCC(C)Sc1c(C(C)C)cnc2c1c(=O)n(C)c(=O)n2C` (centres undefined) stands inactive: -24.8%; under `Cc1nn(C)c2c1c(-c1ccccc1)cc(=O)n2Cc1ccc(Cl)cc1`, inactive: -10.6%. As to `COc1cccc(CNc2nccn(-c3ccc(OC)c(OC)c3)c2=O)c1`, the activation was inactive: -0.901%. Consider `COc1ccc(-n2c(/C=C/c3c(C)[nH]c4ccccc34)nc3ccccc3c2=O)cc1`, for which the activation is inactive: -5.03%. For the compound `COc1ccc(CNC(=O)c2cnn(-c3ccc(C)cc3)c2-n2cccc2)cc1OC`, the activation was inactive: -1.76%. Turning to `CCOc1ccc(S(=O)(=O)N2CCC(N3CCN(Cc4ccc(C)cc4)C(=O)C3=O)CC2)cc1`, the activation was inactive: -14%. Turning to `COc1ccccc1C(=O)Nc1ccc(OCc2cc(=O)n3ccc(C)cc3n2)cc1`, the activation was inactive: -6.36%.

For the compound `COCc1cc(C)nc2sc3c(c12)NC(c1ccc(O)cc1)N(c1ccc(C)cc1)C3=O` (centres undefined), the activation is inactive: -27.6%.

`O=C(Cn1c2ncccc2c(=O)n1-c1ccccc1)Nc1ccc(Cl)cc1C(F)(F)F`: the activation was inactive: 2.91%. `COc1ccc(C)cc1-n1c(-c2ccc(C)cc2)cc2c1CC(C)(C)CC2=O`: the activation was inactive: -26.8%. Turning to `CCn1c(=N)c(C(=O)NC2CCCC2)cc2c(=O)n3ccccc3nc21`, the activation was inactive: 10.6%.

Consider `Cc1nn(C(=O)c2ccccc2)c(C)c1S(=O)(=O)N1CCCCCC1`, for which the activation is inactive: -1.08%. `CCN(C(=O)c1cn(-c2ccc(OC)cc2)c(=O)c2ccccc12)c1cccc(Cl)c1`: the activation was inactive: -24.4%. For `O=C(OCc1cccc(C(F)(F)F)c1)c1ccc(-c2nnn(Cc3ccc(F)cc3)n2)cc1`, the activation was inactive: 1.65%.

As to `CCOc1ccc(C(=O)OCc2cc(=O)n3cc(C)sc3n2)cc1`, the activation was inactive: -4.01%.

Consider `COc1ccc(-c2nc3scc(CCNC(=O)c4cc(OC)cc(OC)c4)n3n2)cc1`, for which the activation is inactive: 16.4%. With `CC(C)N1CCc2nc(SCC(=O)Nc3cccc(F)c3)[nH]c(=O)c2C1`, the activation is inactive: -9.91%. For the compound `CCOC(=O)C1CCCN(S(=O)(=O)c2ccc3[nH]c(=O)oc3c2)C1` (centres undefined), the activation was inactive: -5.31%. With `COc1ccccc1NC(=O)c1sc2ncn(Cc3ccccc3Cl)c(=O)c2c1C`, the activation was inactive: -7.92%.

In the case of `CCc1ccccc1NC(=O)c1sc(-n2nc(C)c(Cc3ccc4c(c3)OCO4)c2C)nc1C`, the activation was inactive: -7.3%. In the case of `Cc1cccc(C(=O)Nc2ccc3oc(-c4ccncc4)nc3c2)c1`, the activation was active: 72%.

Turning to `CCCCCn1cc2c(c1-c1ccc(Cl)cc1)c(=O)n(C)c(=O)n2C`, the activation was inactive: -17.1%. Consider `COc1ccc2c(c1)C=C(C(=O)NCc1cc(Br)ccc1OC)CO2`, for which the activation was inactive: -26.8%. On to `COC(=O)c1ccccc1NC(=O)Cn1c(=O)n(CCCC(=O)NCCc2ccc(OC)c(OC)c2)c(=O)c2ccccc21`, for which the activation was inactive: 8.45%.

For `Cc1cc(C)c(NC(=O)CCC(=O)N2Cc3ccccc3Oc3ncccc32)c(C)c1`, the activation was inactive: 1.35%. For the compound `COc1ccc(Nc2cc(C)c3cc(NC(=O)c4cc(OC)cc(OC)c4)ccc3n2)cc1`, the activation was inactive: -8.87%. Under `Cc1ccc(C)c(NC(=O)NCc2ccc3c(c2)CCN3C(=O)c2ccccc2)c1` stands inactive: 11%; under `C[N+](C)(C)CC=O`, inactive: -3.34%. The value for `COc1ccc(S(=O)(=O)NCc2ccc(C(=O)NCc3ccccc3)cc2)cc1` was inactive: 12.8%; that for `CCCOc1ccc(C2c3c(oc4ccccc4c3=O)C(=O)N2c2nc(C)c(C(=O)OCC)s2)cc1` (centres undefined) was inactive: -11.5%.

For `CC(=O)c1ccc(N2CCN(C(=O)c3ccc(Cn4c(=O)[nH]c5ccccc5c4=O)cc3)CC2)cc1`, the activation was inactive: -6.51%. Consider `CCN1CCC(N(Cc2ccc(F)cc2)C(=O)Nc2cc(Cl)ccc2C(=O)OC)CC1`, for which the activation is inactive: 31.9%. On to `Cc1ccc2c(c1)-c1c(cnn1CC(=O)N1CCN(c3cc(Cl)ccc3C)CC1)CO2`, for which the activation is inactive: -12.2%. With `O=C(c1ccccc1)c1ccc2nc(Nc3cc(Cl)ccc3O)c3nncn3c2c1`, the activation is inactive: -14.3%. On to `CC(C)C(NS(=O)(=O)c1cccc2cccnc12)C(=O)Nc1ccc(OC(F)(F)F)cc1` (centres undefined), for which the activation was inactive: -21.9%. The value for `OC[C@H]1O[C@@H](n2cnc3c(NC4CCCC4)ncnc32)[C@H](O)[C@@H]1O` was inactive: 7.85%; that for `CCOc1ccc(-c2cn3c(n2)sc2cc(C(=O)NC4CCCc5ccccc54)ccc23)cc1` (centres undefined) was inactive: -0.868%. As to `Cc1ccc(NC(=O)CC(C)S(=O)(=O)c2ccc3c(c2)NC(=O)CO3)cc1C` (centres undefined), the activation was inactive: 29.1%. Turning to `O=S(=O)(c1ccc2nc(N3CCN(c4ccccc4)CC3)ccc2c1)N1CCCCC1`, the activation is inactive: -12.9%.

In the case of `COc1ccc(-c2noc(-c3cccc(OC)c3OC)n2)cc1`, the activation is inactive: -5.32%. Turning to `COc1ccc2c(CNCCc3ccccc3)c(C(=O)O)n(Cc3cccc(F)c3)c2c1`, the activation is inactive: -20%.

With `Cc1cccc(NC(=O)CSc2nc3c(oc4ccccc43)c(=O)n2-c2ccc(F)cc2)c1`, the activation was inactive: 7.23%. As to `COc1ccc(Nc2cc(C(=O)NCc3ccccc3)c3ccccc3n2)c(OC)c1`, the activation was inactive: -31.3%. For the compound `COc1ccc(N(Cc2cccs2)C(=O)COc2cc(C)c(Cl)c(C)c2)cc1`, the activation was inactive: -12.5%. `CCOc1ccc2nc(NC(=O)c3cc(=O)c4cc(C)cc(C)c4o3)sc2c1`: the activation was inactive: 16.3%. For `COc1ccc(NC(=O)c2cn3c4c(ccc(Cl)c4c2=O)OC(C)C3)cc1OC` (centres undefined), the activation was inactive: 21.4%. With `CSc1ncc(C(=O)Nc2ccc(C(C)=O)cc2)c(-c2ccccc2)n1`, the activation is inactive: -2.7%. As to `COc1ccc(Cl)cc1NC(=O)Cn1cc2c(n1)CCC(C)C2` (centres undefined), the activation was inactive: 6.11%. Take `Cc1cccc(NC(=O)Cc2ccc(-n3c(C)nc4cccnc43)cc2)c1C`: the activation is inactive: 7.58%. For `O=c1c2cnn(-c3ccc(F)cc3)c2ncn1Cc1ccc(F)cc1`, the activation was inactive: 0.601%. With `COc1ccc(CNC(=O)C2Cc3cc(S(=O)(=O)N4CCCCCC4)ccc3N2C(C)=O)cc1` (centres undefined), the activation was inactive: -19.7%. Under `CSc1nnc2[nH]c(=O)cc(C)n12` stands inactive: 1.57%. Under `Cc1cc(-c2ccc(S(=O)(=O)Nc3ccc(Br)c(C)c3)s2)on1` stands inactive: -1.71%. For the compound `CCOc1ccc2oc(=O)cc(CN3CCN(c4ccccc4)CC3)c2c1`, the activation was inactive: -21.4%. As for `N#Cc1c[nH]n2c(NC3CCCCC3)c(-c3cccc(Cl)c3)nc12`, the activation is inactive: -13.6%. Regarding `COc1ccc(CNC(=O)c2ccc(-c3nc(CSc4ccccc4)c(C)o3)cc2)c(OC)c1`, the activation is inactive: 0.989%. As to `CC(=O)c1cccc(NC(=O)c2cc3nc(-c4ccc(Br)cc4)cc(C(F)(F)F)n3n2)c1`, the activation is inactive: -37%. On to `CCc1ccc(NC(=O)c2cc3c([nH]c2=O)CC(C)(C)CC3=O)cc1`, for which the activation is inactive: 0.691%.

Consider `COc1ccc(CCN2C(=O)N(c3ccccc3)C(=O)C2CC(=O)Nc2ccccc2)cc1` (centres undefined), for which the activation was inactive: -0.377%. The value for `Cc1ccc(-c2nc(C)c(CCNC(=O)C(=O)Nc3ccc4c(c3)OCO4)s2)cc1` was inactive: -1.75%; that for `CCCN1C(=O)C2(c3ccccc31)c1c(oc3ccc(C)cc3c1=O)C(=O)N2CCOC` (centres undefined) was inactive: 3.99%. The value for `CCOC(=O)C1CCN(CCC(=O)Nc2ccc(OC)cc2)CC1` was inactive: -16.3%.

In the case of `COc1cc(C(=O)N2CC(=O)Nc3ccc(C)cc3C2c2ccc(F)cc2)cc(OC)c1OC` (centres undefined), the activation was inactive: -0.459%.

On to `Cc1nc(N2CCOCC2)c2c(C(=O)N3CCN(c4cccc(C)c4C)CC3)c(C)oc2n1`, for which the activation was inactive: -23.3%.
